Measurements taken from PubChem BioAssay AID1159614 (National Center for Advancing Translational Sciences (NCATS), 2016).
Among all 45,000 compounds or so, about 65 (0.1%) were called active. The call rests on the fitted dose curve; in most records, active means well fitted activation curve with a large enough effect; inconclusive means small, poorly fitted or top-dose-only effect; inactive means no such curve, though single readings can be large or run the other way. The list shows a part of the results.

molecular target: Galactocerebrosidase (Homo sapiens) (UniProt P54803); assay: A Novel Cell-Based Assay to Identify Small Molecules for B -Galactocerebrosidase; conditions: 145M-Twi-hGALC-G270D cells (Twitcher mouse brain line with human GALC G270D), HMU-beta-Gal fluorescence, 48 h; series mostly up to 57.5 µM; activation: at the top concentration; further: 0% is about no effect; nearly all actives have a fitted effect of over 65% in size
Sequence of UniProt P54803 (P54803 whole entry, looked up): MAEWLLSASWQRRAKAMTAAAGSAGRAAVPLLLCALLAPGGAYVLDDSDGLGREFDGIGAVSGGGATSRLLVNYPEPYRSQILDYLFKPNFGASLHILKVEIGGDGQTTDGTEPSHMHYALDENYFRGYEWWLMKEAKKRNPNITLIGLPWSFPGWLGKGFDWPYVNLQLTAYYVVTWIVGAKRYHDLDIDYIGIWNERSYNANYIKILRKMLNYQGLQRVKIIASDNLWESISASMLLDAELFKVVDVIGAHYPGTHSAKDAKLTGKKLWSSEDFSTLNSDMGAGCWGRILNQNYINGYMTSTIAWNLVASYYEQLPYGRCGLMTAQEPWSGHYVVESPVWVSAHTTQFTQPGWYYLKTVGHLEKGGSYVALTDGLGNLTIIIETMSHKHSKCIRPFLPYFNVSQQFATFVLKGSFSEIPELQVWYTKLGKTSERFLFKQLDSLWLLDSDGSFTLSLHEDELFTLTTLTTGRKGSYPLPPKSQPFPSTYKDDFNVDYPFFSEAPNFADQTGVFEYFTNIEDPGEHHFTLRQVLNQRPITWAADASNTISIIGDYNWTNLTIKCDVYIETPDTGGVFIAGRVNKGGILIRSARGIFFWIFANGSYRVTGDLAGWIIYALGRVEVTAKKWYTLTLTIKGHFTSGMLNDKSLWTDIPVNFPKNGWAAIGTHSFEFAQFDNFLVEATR
Method in brief: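 Fluorescence readout: HMU-β-gal cleavage by mutant GALC (0.1 mM final, citrate/phosphate pH 5.2 with 1 mg/mL taurocholate), stopped with carbonate/bicarbonate plus Triton X-100. Cells: murine Twitcher 145M-Twi expressing human G270D GALC; qHTS for activators.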

activation, inactive:
COc1ccc(C2c3c(-c4ccc(F)cc4)n[nH]c3C(=O)N2c2ccccc2)cc1OC (centres undefined) -17.5%
Cc1ccccc1CNC(=O)CCSCc1cnn(-c2ccccc2)c1-n1cccc1 -13.1%
C=CCc1ccccc1OCC(O)CNC(C)C (centres undefined) -11.8%
CCc1ccc(NC(=O)CSc2nc3ccccc3c(=O)n2CCC(=O)NC2CCCCC2)cc1 -7.95%
COC(=O)c1cc(C)nc2c1c(=O)nc(SCc1c(C)cc(C)cc1C)n2C1CC1 -8.69%
Cc1ccc(S(=O)(=O)N(CC(=O)Nc2c(C)cccc2C)c2cccc(Cl)c2)cc1 -30.2%
O=C(Cn1cc(S(=O)(=O)Cc2ccccc2Cl)c2ccccc21)Nc1cccc(C(F)(F)F)c1 7.75%
Cc1nc2nc(C)c(CCC(=O)NCCc3ccccc3)c(C)n2n1 -24.1%
Cc1ccc2nc(CN3CCN(S(=O)(=O)c4ccccc4)CC3)oc2c1 -5.79%
CC(C)Oc1cccc(C(=O)Nc2ccc3oc(-c4ccccc4)nc3c2)c1 -13.5%
CCOc1ccc(C(NC(=O)c2cc(OC)c(OC)c(OC)c2)c2cc(Cl)c3cccnc3c2O)cc1 (centres undefined) -5.13%
Cc1ccc(NC(=O)COc2ccc(-c3nn(C)c(=O)c4ccccc34)cc2)c(C)c1 -19.2%
Nc1c(-c2nc(-c3ccccc3Cl)no2)nnn1-c1ccccc1F -4.71%
Cc1ccc(O)c([C@H](CCN(C(C)C)C(C)C)c2ccccc2)c1 -1.04%
CCC(=O)N1c2ccc(S(=O)(=O)N3CCCCCC3)cc2CC1C (centres undefined) -10.3%
CCC(Sc1nc2cc3c(cc2c(=O)n1CCCC(=O)NCc1ccc2c(c1)OCO2)OCO3)C(=O)NCCCOC (centres undefined) 9.82%
CCCCSc1nnc2c(n1)OC(c1ccc(C)s1)Nc1ccccc1-2 (centres undefined) -23.9%
CCC(CC)c1nn2cc(-c3ccccc3)nc2s1 8.11%
Cc1ccc(N2CCN(S(=O)(=O)c3cc(Br)cc4c3N(C(=O)C3CC3)CC4)CC2C)cc1 (centres undefined) -8.96%
CCC(=O)Nc1nnc(S(=O)(=O)N2CCCCCC2)s1 -7.74%
Cn1cc(S(=O)(=O)N2CCCCC2)cc1C(=O)NCc1ccc(Cl)cc1 -10.5%
COc1ccc(NC(=O)C(NS(=O)(=O)c2cccc3nsnc23)c2ccccc2)cc1 (centres undefined) -6.13%
CCOc1cc(-c2nnc(SCC(=O)NCCCOC)nc2-c2ccc(OC)c(OCC)c2)ccc1OC -11.3%
Cc1cc(S(=O)(=O)Nc2ccc3[nH]c(=O)sc3c2)ccc1F -41.6%
COc1ccc(N2CC(NC(=O)Cc3cccs3)CC2=O)cc1OC (centres undefined) -4.42%
CCS(=O)(=O)N1CC(=O)N(c2ccc(C)c(C)c2)C(C)(C(=O)NC2CCCCCC2)C1 (centres undefined) -5.68%
COc1ccc(-c2cn3c(n2)sc2cc(C(=O)N4CCCCC4)ccc23)cc1 -0.707%
CCCN(C(=O)c1cn(CC(C)C)c(=O)c2cc(OC)c(OC)cc12)c1cccc(C)c1 -0.0512%
O=C(CN1CCN(Cc2ccc3c(c2)OCO3)CC1)N1c2ccccc2Sc2ccccc21 -14.9%
COc1ccc(CCNC(=O)c2ccc(Cn3c(=O)[nH]c4cc(OC)c(OC)cc4c3=O)cc2)cc1OC -13.5%
O=C(/C=C/c1ccccc1)OCc1ccccc1 -16.9%
Cc1cc(C)c(NC(=O)CSc2nc3c([nH]c4ccccc43)c(=O)n2C)c(C)c1 -4.55%
CCCOc1cccc(C2c3c(oc4ccc(F)cc4c3=O)C(=O)N2c2nc(C)c(C(C)=O)s2)c1 (centres undefined) -10.6%
COc1cc(NC(=O)C2CCN(c3nc4ccccc4nc3C(F)(F)F)CC2)cc(OC)c1 -9.53%
CCCCNC(=O)CN1CCN(c2ncc(NC(=O)c3ccc(Cl)cc3)cc2C(=O)O)CC1 -12%
CCOC(=O)C(=O)c1csc(NC=O)n1 -12.7%
CCc1ccccc1N(CC)C(=O)C1CCN(c2ncnc3c2nc2n3CCCCC2)CC1 -7.36%
COc1cccc2c1cc1c(=O)n(CC(=O)N3CCC(C)CC3)nc(C)n12 -26.7%
COCCCNc1nc(NCc2ccc(C)cc2)c2cnn(C)c2n1 -15.5%
CCN(C(=O)Cn1ncc2c(=O)oc3ccccc3c21)c1ccccc1F -16.3%
O=c1c2ccccc2n(Cc2cccc(Cl)c2)c(=O)n1Cc1ccccc1 -5.2%
Cc1cccc(N2CCN(C(=O)c3cc4ccc5cccnc5c4[nH]3)CC2C)c1 (centres undefined) -11.7%
CN1CCN(C(CNC(=O)c2c(F)cccc2F)c2ccc3c(c2)OCO3)CC1 (centres undefined) -7.91%
CCC(C)NC(=O)c1sc2nc3n(c(=O)c2c1C)CCC3 (centres undefined) -13.2%
COCCc1nn2c(=O)cc(COC(=O)c3ccc(Br)cc3)nc2s1 -2.84%
O=c1oc2ccccc2cc1-c1nc(-c2cccs2)no1 17.2%
CCC(=O)Nc1sc2c(c1C(=O)Nc1ccc(Br)cc1)CCCCC2 2.01%
COc1ccccc1-c1nc(SCC(=O)c2ccc(Cl)cc2)n[nH]1 -13.2%
CCS(=O)(=O)N1CCc2cc(C(=O)NCc3ccccc3Cl)ccc21 -12.1%
COc1ccccc1NC(=O)c1sc2nc(C)c(C(=O)Nc3ccc(C)cc3C)c(-c3ccccc3Cl)c2c1N -18.9%
Cc1ccc(NC(=O)CCN2C(=O)c3ccccc3Sc3ncccc32)c(Cl)c1 -2.98%
COc1cc(OC)cc(C(=O)NCCc2csc(-c3ccc(C(F)(F)F)cc3)n2)c1 -1.32%
Cc1ccc2oc(=O)c3cc(C(=O)NCCc4ccc(Cl)cc4)sc3c2c1 9.02%
CCc1ccccc1NC(=O)NC(CC)Cn1nnc2ccccc2c1=O (centres undefined) -4.32%
Cc1ccc(-n2nc3c(=O)n(C(C)C(=O)NCc4ccccc4C)nc(C)c3c2C)cc1 (centres undefined) 12.1%
CCOc1ccccc1NS(=O)(=O)c1cc(-c2cnc(C3CC3)o2)ccc1C -2.91%
O=C(c1cc2ccc3cccnc3c2[nH]1)N1CCN(c2cccc(Cl)c2)CC1 -22%
CCCCc1nn2c(=O)cc(COC(=O)c3ccccc3C)nc2s1 -17.5%
COc1ccc(NC(=O)C(C(C)C)N2Cc3ccccc3C2=O)cc1 (centres undefined) -19.3%
COc1ccc(-c2noc(CSc3nc4ccccc4[nH]3)n2)cc1 -17.3%
Cc1ccc(Nc2c(-c3ccc(C)cc3)nc3c(C)cccn23)cc1 -10.4%
CC(C)c1ccc(Nc2c(-c3ccc(N(C)C)cc3)nc3cnccn23)cc1 4.53%
O=C(NCCc1ccc(Cl)cc1)C(=O)NCC(c1cccs1)S(=O)(=O)c1ccccc1 (centres undefined) -8.04%
CC(=O)N1c2ccc(S(=O)(=O)NCCC(=O)N(C)Cc3ccccc3)cc2CC1C (centres undefined) -15.8%
